Whole data set: some 33,000 sequences, median “E-score (-0.5 to 0.5)” near -0.013, cut for the highest 2% near 0.3. The list shows a part of the results.
Each sequence was assayed against T1, Msn1 (UniProt P22148) (assay: PBM E-score (8-mer binding enrichment) (E-score (-0.5 to 0.5)); higher = stronger / more preferred TF binding; most listed sequences are background and not binding sites). Conditions: protein concentration: 200 nM; construct: GST-full length.
T1 sequence: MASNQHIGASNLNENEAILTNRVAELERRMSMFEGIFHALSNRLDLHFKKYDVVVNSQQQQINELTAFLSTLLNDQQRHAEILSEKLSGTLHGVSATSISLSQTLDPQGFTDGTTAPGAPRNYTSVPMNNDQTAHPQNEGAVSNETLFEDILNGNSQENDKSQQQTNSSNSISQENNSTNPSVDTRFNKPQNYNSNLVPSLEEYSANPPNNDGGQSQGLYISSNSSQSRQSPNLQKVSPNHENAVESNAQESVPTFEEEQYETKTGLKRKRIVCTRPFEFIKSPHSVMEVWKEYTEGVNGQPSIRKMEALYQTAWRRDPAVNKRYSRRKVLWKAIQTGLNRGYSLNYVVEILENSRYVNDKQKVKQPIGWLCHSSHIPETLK
Method in brief: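 Masliner-normalised scans of fluorescent anti-GST signal were the basis for scoring. That signal came from GST-tagged yeast transcription factors applied at about 100-200 nM to double-stranded universal all-10-mer Agilent arrays on fresh or once-stripped slides. Each ungapped eight-base word, pooled with its reverse complement, received an E-score from the Universal PBM Analysis Suite.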

Row | Sequence | PBM E-score
1 | AAGGCGTG | 0.0605
2 | CGACCCTC | -0.103
3 | GGCTTTGA | -0.154
4 | GAGAAGCA | -0.127
5 | CTAATAAA | 0.142
6 | AGGCGAAC | 0.00179
7 | CAATAGAC | 0.193
8 | GAGAGGGA | -0.069
9 | ATCCCTAC | -0.0219
10 | AGCTAACA | -0.234
11 | CCGTTAGG | -0.00238
12 | AGGCCAAT | -0.072
13 | ACATCCCA | 0.14
14 | GTCGACAC | 0.141
15 | CATCGTAC | -0.0141
16 | TACGTAAA | 0.211
17 | CACCTTAA | 0.0736
18 | GTGTTGGA | 0.036
19 | CGGGTCAA | -0.0135
20 | CCAGCCCC | -0.304
21 | TGGTCAAA | 0.196
22 | AATTATGG | 0.116
23 | TGTGAACA | -0.0381
24 | AATCAGGG | -0.19
25 | ACGGGACG | -0.189

Row | Sequence | PBM E-score
26 | GTCAGCGA | -0.0344
27 | ATGAATTG | 0.023
28 | GCACCCCA | -0.308
29 | ATATTCAG | 0.114
30 | CCCACCAG | -0.236
31 | ATGAGTCA | 0.0385
32 | CAAGTCCG | 0.0478
33 | AAATATGT | 0.37
34 | AAAATACT | 0.0506
35 | AGGTCTAA | 0.0887
36 | ACATGCCC | 0.127
37 | ACAATCGC | 0.0491
38 | CCCGTAGA | -0.3
39 | ACCACGGT | -0.27
40 | GTCATTGA | 0.0439
41 | AAATCGGA | 0.102
42 | GATTCTAA | 0.0481
43 | AAGTCCGG | 0.22
44 | ACCGCACA | -0.08
45 | AAAGGCTA | -0.0614
46 | ACCTATTC | -0.0726
47 | GCGTCACA | -0.0278
48 | ACGTCGGC | -0.059
49 | CCTCCAAA | -0.0684
50 | AGTAAGAG | 0.0471

Row | Sequence | PBM E-score
51 | TAAACTGA | 0.0472
52 | CACACCGC | -0.133
53 | AACATAGG | -0.0283
54 | ACAAGGGA | -0.0265
55 | ACGCTCGA | -0.0885
56 | GCTGCGCA | -0.169
57 | AGTTGTAG | -0.00068
58 | AGCGGCCT | -0.175
59 | AGCTGACA | 0.0976
60 | CCGTATTC | -0.0719
61 | GCTAAGTA | 0.0163
62 | CCTTTGCA | -0.12
63 | CAATTGAG | -0.0282
64 | CTGCTTGC | -0.00023
65 | GCCTAGGA | 0.0781
66 | ACACCCCG | -0.0945
67 | GCCCCGCA | -0.108
68 | CGGCTTTA | 0.00647
69 | ACAGCACA | 0.0416
70 | AACTAACG | 0.0383
71 | ACCTGTCT | 0.0544
72 | ACTTAGCT | -0.238
73 | ATCTGTAA | 0.0216
74 | GCGAGAAC | -0.0229
75 | TACGGCCA | -0.107

Row | Sequence | PBM E-score
76 | AGTCGACC | -0.117
77 | GCATCCGA | -0.0879
78 | ATGGGCAG | -0.0236
79 | CCCGAAGA | 0.044
80 | CCAAACGA | 0.0947
81 | CGATCGGC | 0.0853
82 | GGACTAAA | 0.238
83 | AAAGTCGC | 0.283
84 | AATCAGAG | -0.0714
85 | AACAGTAG | -0.0756
86 | CGCCCCTA | -0.0917
87 | CGGACTGA | 0.0816
88 | GTAACACA | 0.178
89 | CGTACTGA | 0.0658
90 | CAAGAGAA | 0.0932
91 | ACGACGTC | -0.105
92 | ATTTTCTG | -0.0165
93 | AAGCCCCA | -0.285
94 | ACGGAGCT | -0.194
95 | AGCAAGTC | -0.12
96 | ATAACTGC | -0.0475
97 | ATCTATCG | -0.0631
98 | GTTCGACA | 0.162
99 | ACGTAATG | 0.151
100 | AGCTTTGG | -0.0201

Row | Sequence | PBM E-score
101 | AAACAGAT | 0.103
102 | CTGTCTCA | 0.087
103 | CAATATCC | 0.113
104 | AGGGCCAC | -0.121
105 | AGTGCGGA | 0.144
106 | CCGGCTCC | -0.269
107 | AGGGTCCC | -0.292
108 | ATCCCTGA | -0.14
109 | GCGAAGCC | -0.301
110 | CCGAAAAG | 0.211
111 | TAAACTTA | 0.00053
112 | ATGGGAGA | -0.187
113 | CTGTTTCA | 0.157
114 | GGAGAACC | -0.0953
115 | AGGCGCGG | -0.0991
116 | GTGCCAAC | -0.0599
117 | CAGAGCGC | -0.144
118 | AGATCCAT | -0.153
119 | AAAATCGT | 0.182
120 | GCGAGCGC | 0.0829
121 | GCACTCAC | -0.284
122 | GGCTTAAA | 0.0688
123 | CATTGGGC | -0.165
124 | GACTTCAC | 0.0986
125 | ATCCTTCA | -0.0167

Row | Sequence | PBM E-score
126 | CGTCCACC | -0.226
127 | AAAACAAT | 0.127
128 | TGAAGCCA | -0.143
129 | AAGCTGGT | -0.026
130 | CCACGTTC | -0.145
131 | ATAACAGC | 0.114
132 | CTCTCAAA | 0.00121
133 | GGTAAGGA | -0.0712
134 | ATTGCTTG | 0.00964
135 | AAGTACCA | 0.107
136 | AGACTCCA | -0.187
137 | TAGTTGAA | 0.0956
138 | TATAGGCA | -0.0463
139 | AATAATAA | 0.132
140 | TCACGCCA | -0.0336
141 | GTCCAAGA | -0.0704
142 | GCGTTTTA | -0.166
143 | CACGATAC | -0.0869
144 | AATTAAAT | 0.201
145 | CAGCCGAG | -0.0856
146 | CCATTTCC | 0.0324
147 | GCATTGCC | 0.034
148 | CGCGGAAG | -0.0641
149 | GGAACGTA | -0.143
150 | AATAACTC | 0.00363

Row | Sequence | PBM E-score
151 | ACCGGTGC | -0.114
152 | AATAGTTC | 0.182
153 | AAGTATCG | -0.023
154 | CCCAGCCC | -0.209
155 | CCGCTAAA | -0.109
156 | GGATCCAA | 0.146
157 | CATGATGA | 0.0359
158 | TACGCGAA | 0.083
159 | TTGCACAA | 0.204
160 | CGATCATC | -0.118
161 | AAGGCGGT | 0.088
162 | AGGCTAGG | -0.329
163 | AGCATGTG | -0.0619
164 | AATCCAGT | 0.126
165 | CAACAGGC | 0.0441
166 | TATTTCAA | 0.283
167 | CCTTAGGA | 0.0529
168 | AAGGGGGA | -0.301
169 | AGGTCTTG | 0.0388
170 | CGGAGGAA | -0.131
171 | TGGCAACA | 0.103
172 | ATTGTATA | 0.198

From the supplement of paper PMC3334620
